According to the supplement of paper PMC3334620:
Over roughly 33,000 sequences, “E-score (-0.5 to 0.5)” has its median near -0.054; the highest 2% begin near 0.35. Some of the results follow.

biological target: T1, Stb5 (UniProt P38699); assay: PBM E-score (8-mer binding enrichment) (E-score (-0.5 to 0.5)); higher = stronger / more preferred TF binding; most listed sequences are background and not binding sites; settings: protein concentration: 200 nM; construct: GST-full length
T1 sequence: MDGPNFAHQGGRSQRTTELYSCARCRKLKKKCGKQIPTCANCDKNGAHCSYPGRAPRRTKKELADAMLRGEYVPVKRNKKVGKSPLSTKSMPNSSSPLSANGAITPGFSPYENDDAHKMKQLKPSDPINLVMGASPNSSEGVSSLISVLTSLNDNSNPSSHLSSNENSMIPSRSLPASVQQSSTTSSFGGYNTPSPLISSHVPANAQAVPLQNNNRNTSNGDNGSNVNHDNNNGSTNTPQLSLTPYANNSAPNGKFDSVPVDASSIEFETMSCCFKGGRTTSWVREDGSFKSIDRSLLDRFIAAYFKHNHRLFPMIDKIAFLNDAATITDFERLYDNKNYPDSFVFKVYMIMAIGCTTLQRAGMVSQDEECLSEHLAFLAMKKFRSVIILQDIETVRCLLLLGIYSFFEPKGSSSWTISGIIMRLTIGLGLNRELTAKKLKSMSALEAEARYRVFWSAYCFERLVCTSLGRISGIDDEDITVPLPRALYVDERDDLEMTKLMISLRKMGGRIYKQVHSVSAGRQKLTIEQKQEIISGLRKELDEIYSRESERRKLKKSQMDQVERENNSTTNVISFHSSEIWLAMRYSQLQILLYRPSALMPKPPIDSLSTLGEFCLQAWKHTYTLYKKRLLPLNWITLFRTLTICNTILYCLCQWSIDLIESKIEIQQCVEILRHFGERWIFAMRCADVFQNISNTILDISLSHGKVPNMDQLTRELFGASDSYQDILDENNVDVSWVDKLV
Outline: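 For each ungapped eight-base word taken together with its reverse complement, the Universal PBM Analysis Suite assigned an E-score. Binding data came from GST-tagged yeast transcription factors, applied at about 100-200 nM, on universal all-10-mer Agilent arrays made double-stranded by primer extension. Fluorescent anti-GST marked bound protein, and scans were normalised with masliner.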

Sequence | PBM E-score
CCACCCGG | 0.0156
AACAAACT | -0.169
ACTCAAAG | -0.193
CCTCGACC | -0.205
CTCAGCGA | -0.139
AGCAAGCC | -0.274
CCGGATGA | 0.0663
AAGCGTGA | -0.16
ACCTGGAT | -0.183
TATCGATA | -0.173
AGCCTAAG | -0.0395
ACGCGTAT | -0.0753
GGAGTAGA | 0.0616
ATCGACAG | -0.242
GTTGTCTA | -0.114
CACACAGA | -0.277
AACCTATA | -0.0161
AGCTGGTC | -0.26
CGTCTAAG | 0.0962
CCAAGACG | -0.0773
ACTGTCCA | -0.137
CTTGTCGA | -0.254
CAGTTCCG | 0.0961
AAATTTGG | -0.253
ATGAGTCC | 0.2

Sequence | PBM E-score
ATAAGCGC | 0.181
AGAGCCAT | -0.197
GCCAGTCC | 0.0393
CTGCACTC | -0.0352
AGACCCCG | 0.394
AATGAGGG | -0.167
GACAAAGC | -0.06
CTTGCACA | -0.225
CCCACGTC | -0.0947
CGCGGCAG | 0.212
ACTGTTTC | -0.0587
ACCTATCT | -0.112
AGCCCGAC | 0.373
GATCGAGC | -0.0559
GACCCCTA | -0.323
ATGAGGCG | 0.0355
ATCGGTTG | 0.0401
ACGATAGT | -0.274
CTGGGGGC | -0.245
AGCAATGA | -0.131
GGAGTTCA | 0.00589
TGATCACA | -0.168
AGCAACGG | 0.203
CGAATTCA | 0.097
CTGGATCA | -0.169

Sequence | PBM E-score
AAATGGCG | 0.0944
CCTACGTA | -0.0656
CGGCAATA | 0.454
TAGAACTA | -0.123
AGCCAGGC | -0.243
AAATGTCG | 0.041
AGCCAAAT | 0.0567
CCGTCTGC | 0.299
ACAACGAG | -0.139
ATGCGGTA | 0.243
TATTACAA | 0.057
CAGTCACA | -0.419
CTAGGGGA | -0.201
AATCTCAT | -0.11
CTGGTGTC | -0.178
CTCGACAG | -0.164
AAGGAGCA | -0.308
CACAATCC | 0.0404
ATTTTTAG | 0.0427
ACTCACGA | -0.136
CCAAACTA | -0.236
GAGCTGCC | -0.148
CGGAAAGA | 0.095
AACGAACT | -0.105
TCGTCGCA | -0.0479

Sequence | PBM E-score
CCATAACC | -0.0919
GACACTGC | -0.204
GTAGTCGA | -0.218
AGTACATG | -0.108
ACCTGACA | -0.145
GGGTGTAC | 0.165
ATTACTGG | -0.297
ACTATGTG | -0.0619
CCCAGTCA | -0.177
CCGGATCC | 0.182
AAGGGAGC | -0.334
ACCTGAAA | -0.098
ACTTCCGG | 0.181
CAGCGGTC | 0.315
GATAAAGC | 0.201
AAGCATGT | -0.12
AGCCGGTG | 0.295
CTCGCAGA | -0.323
ATCCTACC | -0.0474
ACGTCCAT | -0.165
AGGTGATC | -0.112
GAGGGTAC | -0.231
ACTAATGA | -0.0625
GGAATTGA | -0.048
ACGTATTA | 0.0993

Sequence | PBM E-score
GGGTTACA | 0.174
CACTCGTA | -0.177
TCCGCTCA | 0.234
ATTGAAAC | -0.0827
GCACCTTA | 0.0235
CAGGATTC | -0.199
CGCGAAGC | 0.108
CGGCCACG | 0.0244
CGATCACG | 0.0934
ACAGTCTC | -0.206
AGCGCAGG | 0.0159
ACTTAGAG | -0.25
CGGACTAC | 0.119
CAGCAGGC | -0.0497
CCACAGGG | -0.203
CTGGCGAA | -0.147
AAGTCGAG | -0.211
AGAAGGTA | -0.11
AGTTGAGC | -0.218
CGTGGTCC | -0.0676
CCTATGAC | 0.00317
GGAGTTAA | 0.398
ATCAGTGA | -0.179
AAAATGCT | -0.0926
CGATGTCC | 0.222

Sequence | PBM E-score
TACCTCTA | -0.209
CTCCGAGA | 0.187
ACGACGGA | 0.227
CAGGGAGA | -0.261
AAGTTGGG | -0.316
AACTCTGC | -0.236
GGAAACTA | -0.0891
ATTTCGCG | -0.00503
ATTTCAAC | 0.00091
CGAGGCAG | -0.0808
TCATGCGA | -0.0626
ATTCGTTC | -0.0694
GAAAACTC | -0.0766
ATCTGAGC | 0.0183
AGAAGGAC | -0.384
CTGAGATC | -0.158
CAGTCTTA | -0.0948
GGCCCGCC | 0.303
GTTTAGAA | -0.0713
GTTCATTA | -0.0606
AACTAAGC | -0.15
ACCAGGTG | -0.153
GAGACCCA | -0.159
GAAAATAA | 0.0552
CATTGCTC | 0.0791

Sequence | PBM E-score
ACCGGAGG | 0.309
AGACCCCA | -0.173
ACGGATCG | 0.0408
TGAGCCCA | -0.179
ATGAGACG | -0.00272
ACAGAGGA | -0.114
AGACCCGC | 0.36
AGGATCGG | 0.211
TAAATCAA | -0.00303
GATCAGCA | -0.119
CAGTTCGC | -0.166
GAAATCAA | -0.228
AATAAAGC | -0.00711
CATATTGG | -0.18
CGATAGAA | 0.0184
CTTGGCGC | 0.114
ATACGCCC | 0.306
GAGGGGGC | -0.262
CATTACTA | -0.0825
AGGTTCTA | 0.0114
CAAGCAGC | -0.0893
ATCCACGA | -0.324
